± gives the standard deviation of the averaged measurements. The list shows a part of the results.
System: PfAP2-I AP2 domain 3 (GST-tagged)
Assay: gcPBM binding intensity (ln(normalized median fluorescence intensity)); higher = stronger DNA binding
Summary of the method: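 In this array assay, P. falciparum DNA-binding domains with a GST tag, expressed in E. coli, were applied for 1 h to primer-extended double-stranded 36-bp intergenic genomic probes and negative controls on an Agilent 4 × 180k array. Bound protein was visualised with Alexa488 anti-GST antibody at 488 nm. Binding intensity is the highest Masliner-normalised natural-log median intensity across replicate spots of either probe orientation.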

Sequence | gcPBM binding intensity (ln)
ATGAAAGTAAGACATGCATGGAATTTTTTTTATTAG [TGCATGCA_site348] | 7.46 ± 0.89
GGAATATTTTATGAGTGTACATTTTTTTTTTTTTTT [XGTACX_site2370] | 8.52 ± 0.59
TTTCTTTTTTTTTTTTTTTCTTTTTTTTTTTTTTTC [CACACA_negctrl_site1025] | 7.63 ± 0.84
ATAATCCAACTTTGAGTGCGTGGTGTTTTTTTTTTC | 8.07 ± 0.81
TATAATACAACATGCACACATATATATGTGAATCTC [CACACA_site2490] | 8.54 ± 0.39
TTTAAAAATAAAAGTACACACATAAACATATTACAC [CACACA_site1428] | 8.46 ± 0.18
ATAAAATAAACATAAATAAACATAAATAAACAAAAA [CACACA_negctrl_site1270] | 7.59 ± 0.67
AGGTATATATACATATGTACGTATATATATATATAT [XGTACX_site5115] | 8.77 ± 0.44
TTTCTAATTTATATCACACACATATTTATATAGTAA [CACACA_site6813] | 7.72 ± 0.54
GGCGTATGTGTATATACACACCCACGTATATAAATA [CACACA_site7489] | 8.09 ± 0.49
TTATATAAATTATTTACACACAAACATTTATACTTT [CACACA_site3449] | 7.84 ± 0.55
TATTCCCTTCTTCCTTCTGTTTTTGATATTAAAGGG [GTGCAC_negctrl_site270] | 7.78 ± 0.43
ATACTTTATTCGTTAGCACACAATTCAAGTTGATTC [CACACA_site1123] | 8.29 ± 0.52
AAGATACCCCAAAATTGTACATATTAAAATAATAAA [XGTACX_site3603] | 7.87 ± 0.66
TTGTAAAACTTATAATGTACATTTTTTTTTTTTTTT [XGTACX_site5398] | 8.3 ± 0.49
AGGGACATCTATATCACACACAAAAATTAGTCCCTT [CACACA_site7330] | 7.65 ± 0.57
TTTTTTTTTTTTTGCACACACATTGAATTATTATTC [CACACA_site197] | 9.45 ± 0.29
TATATAGAGAGATATGCACACTGTATGAATGCCCCC [CACACA_site5476] | 9.83 ± 0.028
TATACCTATATACATACATGCAAATATATATTCATA [TGCATGCA_site269] | 8.13 ± 0.26
ATAAGAAAATATAAAATGCACACTATAAATTGTATA [CACACA_site143] | 8.68 ± 0.2
ATATGTCACTTGTATACACACATATATATTTCAATC [CACACA_site3256] | 8.07 ± 0.42
CTGAAAAAAAAGCTTGCACACGTATTTGCTTTATGT [CACACA_site8427] | 8.1 ± 0.52

Sequence | gcPBM binding intensity (ln)
TTACTTATAAATAAATATACAAAAATGTTATATATA [XGTACX_negctrl_site223] | 7.29 ± 0.4
TTTTTTTTTTTTGAAGTGCATTACTTTTTTTGTATT [GTGCAC_site9811] | 11 ± 0.44
TTTTTTGTGTTTGGTACACACGTTATAAAAAATAAA [CACACA_site4866] | 7.93 ± 0.35
GAAAATAGCTAAAATACACACAATTAAAAATTATTA [CACACA_site3506] | 7.3 ± 0.44
AGGAATATAAAGTGCACACATAATTTGGGGGCAAAA [CACACA_site258] | 10.6 ± 0.44
TTGTTTCTACAATTTAATAAAATACGTTTTCAAAAA [XGTACX_negctrl_site377] | 7.38 ± 0.5
TACTCCTTAAATATATGTAAAGGAAGAAAAAAAAAA [XGTACX_negctrl_site306] | 7.86 ± 0.75
ACAATAAAAATAAAAAGTACAAATAAAAAAAATAAA [XGTACX_site6718] | 7.91 ± 0.26
AATATATGTTTAATTTCACACACAAATATACATTTT [CACACA_site9385] | 7.69 ± 0.65
ATATATATATATATATGTACACATATACGCTTTTTC [XGTACX_site3838] | 9.59 ± 0.63
TTTGAGATAAAAGACTGTACTTAGAATGTATAAAAA [XGTACX_site203] | 7.98 ± 0.52
TTTAATTTTATATAGAGTACAAAAAAATAGAAAGAT [XGTACX_site3870] | 8.34 ± 0.36
ATATATATATATATATGTACATAAATATTTTAAAAT [XGTACX_site4980] | 9.55 ± 0.61
AAAAAAAAAAAAAACTGTACCAAAAAGAATATATAC [XGTACX_site8345] | 7.97 ± 0.45
ATCCTCTTTACAATATGTACATAAATATATATTTAT [XGTACX_site8001] | 8.47 ± 0.43
TATATATATAAATACACACACATATATATATATATA [CACACA_site4867] | 9.37 ± 0.81
TATTTATTTATTTATTTATTTATTTATTTATATTTA [CACACA_negctrl_site398] | 8.05 ± 0.54
TATATATTTTTATTATGTACATATTAACAATGTGTT [XGTACX_site879] | 7.83 ± 0.33
TAAAATATAAAACACACACACATATATATATATATT [CACACA_site224] | 7.8 ± 0.4
AAGTAAAATAAGTATACACACATAAATATATATATA [CACACA_site685] | 8.94 ± 0.2
TATAATAATACGTATTGTACTATTAGGTTAATTCGT [XGTACX_site264] | 7.62 ± 0.5
ACTTGTAAGAAACACACACACACACCCATATATATA [CACACA_site796] | 8.3 ± 0.79

Sequence | gcPBM binding intensity (ln)
TCTATAAAGGAATATACACACATATATATATATATA [CACACA_site410] | 9.36 ± 0.29
TTTTCTTGTAAATTACGTACGAATGTGTAGAGAAAT [XGTACX_site1339] | 8.36 ± 0.58
TTATTAAATATGTACACACGTACATTTTATAAATGA [CACACA_site2387] | 7.58 ± 0.4
TATATATATATTTAGTGTACTTAAAAAAAATAATAA [XGTACX_site5454] | 8.9 ± 0.18
TATTTTTTTTTCCATTGTACATTTTTGATATTTTTC [XGTACX_site744] | 7.89 ± 0.57
ATAATAATAAAATATATATACAAAGGTGAAATTATA [TGCATGCA_negctrl_site197] | 7.96 ± 0.58
CTTTGTAGTATATTAACACACAACTGTTTATAATAT [CACACA_site6038] | 7.77 ± 0.54
TTCTTTAAAAAATTCGATAAAAAAAAAAAAAGAAAA [CACACA_negctrl_site242] | 7.57 ± 0.35
TATATACTCATGCGCACACACAAGTGGGAAATTTGG [CACACA_site5056] | 8.35 ± 0.6
GGAAAGACAGTTCACAGTACCCAGGAAATCTACGGA [XGTACX_site1996] | 7.58 ± 0.69
ATATATTATAGGTACACACACATATAAGGGATTATA [CACACA_site6154] | 7.99 ± 0.38
ATATACATATATATTGCATGCAGAGAGTATTTATAA [TGCATGCA_site646] | 8.14 ± 0.49
ATATATATATATATTGTGCACAAAAAAAAATAAGCA | 11.2 ± 0.15
CGTTCATATTATTATAGTACATATTATTATAGTTTT [XGTACX_site1550] | 7.69 ± 0.42
TTTTTTTTTTTATTTGCATGCGGTGTTCATAATATT [TGCATGCA_site199] | 8.18 ± 0.95
TATTTGTAAATTATTTGGGTGTGTAGGGGATATTCT [XGTACX_negctrl_site204] | 8.28 ± 0.86
TTGGTGGATAAATTTACACACAATAACTTTCGTTCA [CACACA_site6358] | 8.43 ± 0.12
AGAAGAAAAGTAAAAAGTACATTATTCATGGCCTAT [XGTACX_site5601] | 7.46 ± 0.7
ATATAAGAAATAAAGAAAAATGTGTTTTTTTTTTTT [XGTACX_negctrl_site396] | 7.5 ± 0.59
TTTTTCCTAACATATTATATACTTGAATATTTATTA [CACACA_negctrl_site156] | 7.67 ± 0.56
AAACAAATATTTATCACAATGTCATTTTGTTAACAT [GTGCAC_negctrl_site171] | 7.62 ± 0.68
AGAGCTGTTTTTTATGCATGTAGTTTAGAAAATACA [TGCATGCA_site257] | 7.67 ± 0.61

Sequence | gcPBM binding intensity (ln)
TTTATCTTATTTTTATGTACTTATTTTATAAAAAAA [XGTACX_site7730] | 8.29 ± 0.23
AACAAATTTATCCAAAGTACAAAATATCATTTCTTA [XGTACX_site4543] | 7.47 ± 0.54
ATTATAATTATATATGCATGTAGCATTTTCTATTTT [TGCATGCA_site66] | 7.55 ± 0.81
AACAACATGTAGACGCGTACCAACATCAGATCCTAT [XGTACX_site4071] | 7.71 ± 0.59
TTCTTTATTTATCATTATAAGAAGAGTTGATTTGTT [XGTACX_negctrl_site555] | 7.66 ± 0.44
TTATAATATAGCAATTATTAAATAGGATCAAATGAA [CACACA_negctrl_site632] | 7.62 ± 0.49
TATAAATACTAAAAAAGTACAAAATTTCATAAAAAA [XGTACX_site2709] | 7.82 ± 0.59
ATTTTATATAATACATGTACAAAAGTTTAAATTTAT [XGTACX_site6196] | 7.67 ± 0.76
ATATGTTTGATTTTTTTTTTTTTTTTTTTTATGTGT [CACACA_negctrl_site1001] | 7.61 ± 0.12
AAAAAAAAAATTAAAAGTACAGAAAATAAATAAATA [XGTACX_site7470] | 7.62 ± 0.69
TTAATACACCATAAAAGTACATAATATGATATTTAA [XGTACX_site8561] | 8.06 ± 0.071
TTTTTCTTTTTTTTTTCCTTTATCACATAAGAAAAA [CACACA_negctrl_site192] | 7.84 ± 0.58
AAGATATGAGGGAATACACACATATATATATATATA [CACACA_site1581] | 9.31 ± 0.52
AAAATGAAGAAGTGCACACATATATATATTTATATA [CACACA_site507] | 9.88 ± 0.28
AAGAAAATAAATAATACACACAAGGATTTGTAAATA [CACACA_site690] | 7.54 ± 0.69
CTTTTTTTTTAAAAATGTACACATTTTTGAAAATAC [XGTACX_site3127] | 7.85 ± 0.42
CATATAATAAATAATACACACATATTGTAAATATAT [CACACA_site5734] | 7.61 ± 0.51
AATTGAGTATCGTGAGTGCAAAACGTGGTTCAAAGA | 10.2 ± 0.25
TAAAATAAAATAAAATGTACTTTCCTTTTGATAATA [XGTACX_site6288] | 7.3 ± 0.35
GTAATGAACAAACACAAAAAAAAAAAAAAAATAATA [TGCATGCA_negctrl_site344] | 7.38 ± 0.38
TTTTCCCTTACAGAAAAAAAAAAATTCCTAACCCCG [CACACA_negctrl_site650] | 7.93 ± 0.42
TTATATATTTATAATCGTACAATAATTAACGTAAAA [XGTACX_site3206] | 7.84 ± 0.56

Source: the supplement of paper PMC11417369
